Test results: article PMC4336329 (PLoS ONE, 2015)
The whole screen tested about 310,000 compounds, of which about 2,200 (0.71%) showed an effect of 50% or more. The effect is printed as a negative number. This is one part of the list.

target: human ether-à-go-go-related gene (hERG) potassium channel (human, UniProt Q12809); assay: primary screen, population patch clamp on CHO cells stably expressing hERG
Sequence (Q12809 whole entry, looked up): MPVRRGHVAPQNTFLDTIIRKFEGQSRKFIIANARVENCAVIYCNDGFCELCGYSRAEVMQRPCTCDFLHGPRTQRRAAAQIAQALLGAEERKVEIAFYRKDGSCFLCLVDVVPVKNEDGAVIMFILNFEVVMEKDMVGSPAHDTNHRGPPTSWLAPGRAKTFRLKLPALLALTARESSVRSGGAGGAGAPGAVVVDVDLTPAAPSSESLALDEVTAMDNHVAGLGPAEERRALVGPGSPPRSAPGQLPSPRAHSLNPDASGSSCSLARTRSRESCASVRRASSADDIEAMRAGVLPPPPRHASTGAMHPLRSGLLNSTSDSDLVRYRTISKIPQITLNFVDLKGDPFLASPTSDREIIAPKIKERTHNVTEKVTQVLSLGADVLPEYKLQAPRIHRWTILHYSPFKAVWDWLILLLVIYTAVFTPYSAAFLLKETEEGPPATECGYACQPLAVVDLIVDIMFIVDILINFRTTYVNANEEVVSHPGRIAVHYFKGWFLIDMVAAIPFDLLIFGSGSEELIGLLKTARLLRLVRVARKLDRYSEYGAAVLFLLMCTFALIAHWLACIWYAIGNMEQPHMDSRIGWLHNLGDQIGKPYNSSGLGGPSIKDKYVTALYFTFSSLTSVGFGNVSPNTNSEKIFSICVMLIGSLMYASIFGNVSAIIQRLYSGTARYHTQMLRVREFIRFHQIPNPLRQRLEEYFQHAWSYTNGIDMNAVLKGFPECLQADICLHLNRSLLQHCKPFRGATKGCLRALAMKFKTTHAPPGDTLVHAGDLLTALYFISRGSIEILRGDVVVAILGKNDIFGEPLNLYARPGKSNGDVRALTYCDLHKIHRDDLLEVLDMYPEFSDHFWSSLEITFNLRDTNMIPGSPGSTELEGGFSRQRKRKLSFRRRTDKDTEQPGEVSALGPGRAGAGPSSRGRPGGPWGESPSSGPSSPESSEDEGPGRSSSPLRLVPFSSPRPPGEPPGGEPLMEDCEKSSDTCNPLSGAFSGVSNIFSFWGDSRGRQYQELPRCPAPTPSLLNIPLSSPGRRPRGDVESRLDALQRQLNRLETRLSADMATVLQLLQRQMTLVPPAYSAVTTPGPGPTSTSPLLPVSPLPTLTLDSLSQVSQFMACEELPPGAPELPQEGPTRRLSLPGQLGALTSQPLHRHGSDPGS

Row | Compound | hERG current change (%, negative = inhibition) at 1uM
1 | CC(C)CC(=O)N1CCC(N2CCN(c3ccccc3)CC2)CC1 | 4.37%
2 | CC(=O)Nc1ccc(Nc2ccc(N3C(=O)CCCC3=O)cc2[N+](=O)[O-])cc1 | 5.23%
3 | CCOC(=O)c1c(C)[nH]c(C(=O)CN2C(=O)NC(C)(CC(C)C)C2=O)c1C (stereo not shown) | 16.3%
4 | CCN1CCN(S(=O)(=O)c2ccc(Cl)nc2)CC1 | 6.86%
5 | COc1cc(/C=N/NC(=O)CCc2ccccc2)ccc1O | 2.47%
6 | CC(=O)c1ccc(OCC(=O)OC(C)C(=O)NC2CCCCC2C)cc1 (stereo not shown) | 14.2%
7 | O=S(=O)(c1ccc(Br)cc1)c1nc(-c2ccccc2)oc1N1CCOCC1 | 4.55%
8 | CCCC(C)NS(=O)(=O)c1ccc(OC)c(C)c1 (stereo not shown) | 3.11%
9 | CCN(CC)S(=O)(=O)c1cc(NC(=O)C2CCN(c3ncnc4sc(C)c(C)c34)CC2)ccc1Cl | 23.5%
10 | O=C(Nc1ccccc1Oc1cccnc1)C1CCCN(Cc2ccc(F)cc2)C1 (stereo not shown) | 4.04%
11 | O=C(N/N=C/c1cn(CCOc2ccccc2)c2ccccc12)c1ccncc1 | 2.66%
12 | [N-]=[N+]=CC(=O)C(Cc1ccccc1)N1C(=O)c2ccccc2C1=O (stereo not shown) | 11.6%
13 | Cc1ccc(NC(=O)CNc2ccc(Cl)cc2F)cc1 | 8.46%
14 | COc1ccccc1NC(=O)Cn1cnc2c(nc3n2CCCCC3)c1=O | 14.5%
15 | O=C(CN1CCN(S(=O)(=O)c2ccccc2)CC1)Nc1ccc([N+](=O)[O-])cc1 | -42.2%
16 | C=CCn1c(O)c(C2=c3ccccc3=NC2=O)c2ccccc21 | 14%
17 | O=C(Nc1cc([N+](=O)[O-])ccc1C(=O)NCCN1CCOCC1)c1ccccc1 | -12%
18 | Cc1cccnc1NC(=O)c1ccc(Br)o1 | 27.6%
19 | COc1cccc(NC(=O)C(NC2CCCC2)c2ccccc2)c1 (stereo not shown) | 0.871%
20 | COC(=O)CCC(=O)N1CCCC(N2CCN(c3cccc(C(F)(F)F)c3)CC2)C1 (stereo not shown) | -4.1%
21 | Cc1ccccc1CSc1nnc(-c2cccnc2)n1N | 4.59%
22 | O=C(OCc1nc2ccsc2c(=O)[nH]1)c1ccccc1 | 11.8%

Row | Compound | hERG current change (%, negative = inhibition) at 1uM
23 | O=C(c1cc(S(=O)(=O)N2CCOCC2)ccc1Cl)N1CCc2ccccc2C1 | 3.08%
24 | COc1cc2c(cc1OC)C(Nc1ccc(S(N)(=O)=O)cc1)=NC(C)(C)C2 | 0.0307%
25 | O=S(=O)(c1ccccc1)c1nc(-c2cccc(Cl)c2)oc1N1CCOCC1 | 15.1%
26 | COc1ccc(/C=N/NC(=O)C(Cc2c[nH]c3ccccc23)NC(=O)OCC(C)C)cc1[N+](=O)[O-] (stereo not shown) | 14.3%
27 | CCOc1ccccc1CNC(=O)CCn1ccc2cc(S(=O)(=O)N3CCCCC3)ccc21 | 15.5%
28 | CCOC(=O)c1[nH]c(C)c(C(=O)OCC(=O)NCc2ccc(Cl)cc2)c1C | 3.29%
29 | O=C(CN(CCc1ccccc1)C(=O)CNS(=O)(=O)c1ccc(F)cc1)NCc1ccco1 | 2.71%
30 | COc1ccc(NS(=O)(=O)c2cccc(C(=O)NCC3CCCO3)c2)cc1 (stereo not shown) | 5.65%
31 | COC(=O)c1cn(-c2ccccc2)nc1-c1ccc(OC)c(OC)c1 | 18.5%
32 | Cc1ccc(N=Cc2c(C)[nH]n(-c3nc4ccccc4[nH]3)c2=O)cc1 | 13.3%
33 | Nc1nc2n(n1)C(c1cccs1)CC(c1ccc(F)cc1)N2 (stereo not shown) | 5.77%
34 | Cc1ccc(NC(=O)CC2S/C(=N/N=C/C=C/c3ccccc3)NC2=O)cc1Cl (stereo not shown) | 18.6%
35 | O=C1NC(=O)C(CCc2ccncc2)(CCc2ccncc2)C(=O)N1Cc1ccccc1 | -43.4%
36 | COc1ccc(C(=O)Nc2nc3ccccc3s2)cc1 | 17.1%
37 | COc1ccc(OC)c(Nc2nc(N)c([N+](=O)[O-])c(NCc3ccccc3)n2)c1 | 13.2%
38 | CCc1nc2c(oc3ccccc32)c(=O)[nH]1 | 10.7%
39 | COc1ccc(N(CC(=O)Nc2c(C)n(C)n(-c3ccccc3)c2=O)S(=O)(=O)c2ccc(C)cc2)cc1OC | 10.7%
40 | O=C(Nc1cccs1)Nc1cccnc1Cl | 12.8%
41 | Cc1[nH]cnc1CN1CCc2c(c3ccccc3n2C)C1=O.Cl | 1.5%
42 | Cc1ccc(S(=O)(=O)N[C@H](C(=O)OCn2nnc3ccccc3c2=O)C(C)C)cc1 | 12.3%
43 | Cc1cc2oc(=O)c3c(c2cc1OC(=O)c1ccco1)CCCC3 | 14.4%
44 | Cc1ccccc1-c1nc(CN(C)C(C)c2ccon2)c(C)o1 (stereo not shown) | 18.2%

Row | Compound | hERG current change (%, negative = inhibition) at 1uM
45 | Cc1cc(O)cc(O)c1C(=O)Cc1cnn(-c2ccccc2)c1 | 5.27%
46 | Cc1cccc(N2CCN(S(=O)(=O)c3ccc4c(c3)NC(=O)CS4)CC2)c1C | 13.8%
47 | O=S(=O)(c1ccc2ccccc2c1)N1CCCCCC1 | 15.5%
48 | CCCCCCNC(=O)N[C@@H](Cc1ccc(O)cc1)C(=O)NCCC[C@H]1CN2C(=NC[C@H]2C)N1CC1CCC1 | 12.6%
49 | COc1cc(-c2ccc3oc(-c4ccsc4)cc3c2)cc(OC)c1OC | 12.5%
50 | Cc1[nH][nH]c(=O)c1N=Nc1ccc(F)cc1 | 13.5%
51 | CCOc1ccc(CCNS(=O)(=O)c2ccc3c(c2)oc(=O)n3C)cc1OCC | 7.53%
52 | Cc1cc(C)n2c(SCC(=O)NC3CCCCC3)nnc2n1 | 13.5%
53 | CCOc1ccc(CCNC(=O)COC(=O)/C=C/c2ccccc2)cc1OCC | 11.5%
54 | Cc1cc(C(C)(C)C)n2nc(C)c(-c3ccccc3)c2n1 | 6.99%
55 | O=C(CNC(=O)c1ccc(Br)o1)Nc1cccc(-c2cnc3ccccc3n2)c1 | 0.414%
56 | Cc1c(C(=O)N/N=C/c2ccoc2)cccc1[N+](=O)[O-] | 9.46%
57 | COc1ccc(N2CCN(Cc3nc4c(c(=O)[nH]c(=O)n4C)n3Cc3cccc(Cl)c3)CC2)cc1 | 1.9%
58 | Fc1ccc(N2CCN(C3=Nc4cccc5cccc3c45)CC2)cc1 | -69.4%
59 | O=C(O)CC1OCC=C2CN3CCC45C6=CC(=O)C(=O)C([N+](=O)[O-])=C6NC4C1C2CC35 (stereo not shown) | 10.3%
60 | COc1ccc(-c2csc(Nc3ccccc3)[n+]2Cc2ccccc2)cc1.[Br-] | 16.7%
61 | CN(C)C=Nc1nonc1-c1ccccc1 | 2.8%
62 | COc1cc(CCC(=O)OCC(=O)Nc2ccc(C)cc2Br)cc(OC)c1OC | 6.77%
63 | CC(=O)c1cccc(-n2c(CCC(=O)O)ccc2-c2ccc(C)cc2)c1 | 12.4%
64 | CCCCCCCCOC1OC(CO)C(O)C(O)C1NC(C)=O (stereo not shown) | 5.19%
65 | CCOc1ccc(-n2nnnc2SCC(=O)c2ccccc2)cc1 | 5.5%
66 | Cc1ccc(C(=O)O)cc1NC(=S)NCCc1ccccc1 | 10.6%

Row | Compound | hERG current change (%, negative = inhibition) at 1uM
67 | O=[N+]([O-])c1cccc(S(=O)(=O)N2CCCCC2c2cccnc2)c1 (stereo not shown) | -9.87%
68 | CCOC(=O)N1CCN(CCC(=O)c2ccc(Cl)cc2)CC1.Cl | -16.7%
69 | COc1ccccc1CN1C(=NC(=O)C2CCCCC2)SC2CS(=O)(=O)CC21 (stereo not shown) | 14.8%
70 | Cc1ccc(C2=NNC(=O)C(c3c[nH]c4ccccc34)C2)cc1 (stereo not shown) | 12.7%
71 | CSc1ccc(/C=N\NC(=O)CC(=O)NC(C)C)cc1 | 10.7%
72 | S=C(NCC1CCCO1)Nc1ccc(Cl)c(Cl)c1 (stereo not shown) | 11.2%
73 | NNC(=O)c1cn2ccccc2n1 | 4%
74 | COc1ccc(CCNC(=O)CSc2nncs2)cc1 | 13.7%
75 | COc1ccc(CCNC(=O)CSc2nc(-c3ccco3)cc(C(F)(F)F)n2)cc1OC | -1.48%
76 | CCOc1ccc(CCNC(=O)CCC(=O)N2CCOc3ccccc32)cc1OCC | 3.56%
77 | COc1ccc(NC(=O)CSc2nnc(-c3ccncc3)o2)c([N+](=O)[O-])c1 | 13.9%
78 | CCC(C)(C)NC(=O)C(Sc1ccccc1)c1ccccc1 (stereo not shown) | 12.3%
79 | COc1ccc(CCN(C)C(=O)CN2C(=O)NC3(CCCc4ccccc43)C2=O)cc1OC (stereo not shown) | 21.7%
80 | O=C(NCc1ccco1)c1ccc2c(=O)n(CC3CCCO3)c(=S)[nH]c2c1 (stereo not shown) | 4.98%
81 | CC1(C)Cc2c(c(N3CCOCC3)nc3sc(-c4ccc(C(=O)O)o4)c(N)c23)CO1 | -12.7%
82 | CCOC(=O)c1c(S(=O)(=O)N2CCCC(C)C2)c(C)n(C)c1C (stereo not shown) | 6.38%
83 | CCOc1ccccc1NC(=O)CN(c1nccs1)S(=O)(=O)c1ccc(N)cc1 | 9.61%
84 | O=C(N/N=C/c1ccc2c(c1)OCO2)c1ccccn1 | 8.97%
85 | COC(=O)CNC(=O)C1Nc2ccccc2C2C=CCC12 (stereo not shown) | 1.16%
86 | CC(NC(=O)Cn1nc(-c2ccccc2)ccc1=O)c1ccccc1 (stereo not shown) | 5.99%
87 | Cc1nnc(SCCCN2C(=O)c3ccccc3C2=O)o1 | 1.63%
88 | CCOCCCNC(=O)CCc1ccc(-n2cnc3cccnc32)cc1 | 12.4%
